Reference: PubChem BioAssay AID1508623 (National Center for Advancing Translational Sciences (NCATS), 2021)
Hit rate of the full screen: of about 48,000 compounds, about 450 (0.94%) were called active. About 19% were inconclusive and are not listed. Calls come from the whole dose curve; as a rule, active = well fitted inhibition curve with a large enough effect; inconclusive = small, poorly fitted or top-dose-only effect; inactive = no such curve, though single readings can be large or run the other way. Some of the results follow.

Experiment: Primary qHTS for Identification of Small Molecule Inhibitors of Huntingtin Promoter Activity; note: nearly all actives have a fitted effect of over 50% in size
Settings: HEK293 HTT promoter firefly luciferase reporter (activity 0% = vehicle and -100% = no light), 24 h; series mostly up to 57.5 µM; activity change, negative = inhibition: at the top concentration
Procedure, shortened: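 Quantitative HTS used concentration series of up to 57.5 uM final on HEK293 luciferase reporter cells, 24 h at 37 degrees C. Readout was Dual-Glo firefly luminescence.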

Activity change, negative = inhibition, inactive:
COc1ccc(CNC(=O)Cc2c(C)c3cc4c(C)coc4c(C)c3oc2=O)cc1OC -4.9%
Cc1ccc(C)c(NC(=O)C2CCN(c3cc(C)nc4c(-c5ccc(Cl)cc5)c(C)nn34)CC2)c1 -14.7%
COc1ccc(-n2cc(C(=O)Oc3cc(C)cc(C)c3)c3ccccc3c2=O)cc1 -0.645%
COc1cccc(NC(=O)Cn2cc(C(=O)c3ccco3)c3ccccc32)c1 -18.8%
Cc1ccc(-n2c(SCC(=O)c3ccccc3)nc3c([nH]c4ccccc43)c2=O)cc1 -15.3%
c1ccc2c(c1)CCCC2C1=NCCN1 (centres undefined) 11.3%
O=C(Nc1ccc2oc(-c3cccc(F)c3)nc2c1)c1ccc2ccccc2c1 2.9%
Cc1cc(C)cc(NC(=O)c2cc(S(=O)(=O)N3CCc4ccccc43)cn2C)c1 -21.6%
COc1cccc(NC(=O)Cn2c(=O)n(CCCCC(=O)NCc3ccccc3Cl)c(=O)c3ccccc32)c1 -14.3%
CCCCC(Sc1nc2cc3c(cc2c(=O)n1CCCC(=O)NCc1ccc2c(c1)OCO2)OCO3)C(=O)OCC (centres undefined) -8.62%
O=C(CSc1ncc(S(=O)(=O)c2ccc(Br)cc2)c(=O)[nH]1)Nc1ccc2c(c1)OCCO2 5.75%
CCOc1ccccc1N1CCN(S(=O)(=O)c2ccc(C3CCCCC3)cc2)CC1 -13%
COc1cccc(-n2c(SCc3ccc(F)cc3)nc3c([nH]c4ccccc43)c2=O)c1 -29%
Cc1ccc2nc(-c3ccc(Cl)s3)c(Nc3ccc4c(c3)OCCO4)n2c1 41.3%
COC(=O)c1ccc(NC(=O)CN(C)S(=O)(=O)c2ccc(Br)s2)cc1 -2.95%
COc1ccc(Cn2ccnc2SCC(=O)Nc2nnc(C)s2)cc1 -23.7%
Cc1nn2c(C)c(C(=O)NCc3ccc(OC(C)C)cc3)cnc2c1-c1ccc(F)cc1 -18.3%
CCN(CCCNC(=O)c1nn(-c2ccc(C)cc2)c(=O)c2c1c1ccccc1n2C)c1cccc(C)c1 -4.78%
COc1cccc(CNC(=O)CN2C(=O)COc3ccc(S(=O)(=O)N4CCOCC4)cc32)c1 -3.24%
Cc1ccc(CNC(=O)c2ccc(N3CCCC3)c(NC(=O)Nc3ccc(F)c(Cl)c3)c2)cc1 -29.2%
O=C(O)Cn1c(C(=O)Nc2nc(-c3ccccc3Cl)cs2)cc2ccccc21 4.68%
Cc1ccc2c(c1)-c1c(c(C(=O)N3CCN(c4cc(C)ccc4C)CC3)nn1C)CS2 -10.9%
COc1ccc(NC(=O)Cn2c(=O)c3ccccc3n3nncc23)c(OC)c1 -15.7%
CC(=O)c1c(C)oc2c1cc(NS(=O)(=O)c1ccc(C(C)(C)C)cc1)c1ccccc12 -17%
Cc1ccc(CNC(=O)C(C)n2nc(C)c3sc4ccccc4c3c2=O)cc1 (centres undefined) -12.6%
Cc1cc(C)c(NC(=O)Cn2c(=O)n(Cc3ccc(C(=O)NCc4ccc5c(c4)OCO5)cc3)c(=O)c3ccccc32)c(C)c1 -2.92%
COc1ccc(NC(=O)c2cc(S(=O)(=O)N3CCCC3)ccc2OC)cc1 -10.9%
CC(C)Cc1nn2c(=O)cc(COC(=O)c3ccc(NC(=O)C4CCCCC4)cc3)nc2s1 -7.57%
CCOc1ccc(C(=O)NCC(c2cccs2)S(=O)(=O)c2ccccc2)cc1 (centres undefined) -18.6%
COc1ccc(Nc2nc3ccc(Cl)cc3nc2-n2nc(C)cc2C)cc1 -14.6%
Cc1cccc(C)c1NC(=O)c1ccccc1C(=O)O 6.77%
CCOc1ccc(NC(=O)c2cc(C)nc3c2c(C)nn3-c2ccc(C)cc2)cc1 5.48%
Cc1cccc(C(=O)N2CCc3cc(CNC(=O)CSc4ccccc4)ccc32)c1 -22.2%
COc1ccccc1CNC(=O)c1cc2c(s1)-c1ccc(Cl)cc1SC2 17%
Cc1ccccc1CNC(=O)CSc1nnc(C)c2c(C)n(-c3ccccc3)nc12 -14.9%
O=C(COc1ccc(Cl)cc1)Nc1nnc(S(=O)(=O)N2CCCCCC2)s1 -15.6%
CCOc1cccc(CC(=O)N2CCc3c([nH]c4ccc(OC)cc34)C2c2ccc(F)cc2)c1OCC (centres undefined) -20.8%
CCCCOc1ccc(C2C(C(=O)Nc3ccccc3OC)=C(C)Nc3nnnn32)cc1OC (centres undefined) -16.1% [at 11.5 µM]
Cc1ccc(S(=O)(=O)n2nc(C)c(S(=O)(=O)N3CCCCCC3)c2C)cc1C -3.63%
Cc1ccn2c(Nc3ccc4c(c3)OCCO4)c(-c3ccccc3O)nc2c1 -7.66%
CCN(CC)CCCNC(=O)CCC(=O)NNc1nc2ccccc2c2nc(C)nn12 -4.06%
COc1cc2c(cc1OC)[C@@H]1CC(=O)[C@@H](CC(C)C)CN1CC2 7.17%
Cc1cc(NC(=O)Nc2nnc(N3CCCCCC3)s2)ccc1Br 2.3%
Cc1ccc(CNC(=O)c2ccc(Nc3nc4ccccc4n4nnnc34)cc2)cc1 26.3%
Cc1ccc(-c2nn(-c3ccccc3)c3c2cnc2ccccc23)cc1C -12.6%
COc1ccc(OC)c(-c2noc(N3CCN(c4ccc(Cl)cc4)CC3)n2)c1 -20.4%
Cc1ccc(S(=O)(=O)N(CCc2ccccc2)CC(=O)Nc2ccccc2C)cc1 -33.9%
Cn1cnc(S(=O)(=O)N2CCCC(C(=O)NCc3ccc(F)cc3)C2)c1 (centres undefined) -14.5%
CCOc1ccc(NC(=O)C(=O)NCCc2csc(-c3ccc(C(F)(F)F)cc3)n2)cc1 -1.78%
NNC(=O)CP(=O)(c1ccccc1)c1ccccc1 -6.82%
Cc1cc(C)cc(NS(=O)(=O)c2ccc3[nH]cc(C(=O)NCCc4ccccc4)c(=O)c3c2)c1 -13.7%
Cc1nn2c(=O)cc(COC(=O)c3ccccc3NC(=O)c3cccs3)nc2s1 -21.8%
CC(C)NC(=O)c1ccc2c(c1)N(Cc1cccc(Cl)c1)C(=O)c1ccccc1S2=O (centres undefined) -13.9%
COc1ccc(NC(=O)CN2CCN(Cc3ccccc3Cl)S2(=O)=O)cc1Cl -33.1%
COC(=O)c1sc2c(c1C)c(=O)n(-c1ccccc1)c(=O)n2CC(=O)Nc1cccc(C)c1 -5.84%
CN1CCN(Cc2c(O)ccc3cc(-c4ccc(Cl)cc4)c(=O)oc23)CC1 -0.649%
COc1cc(OC)c(NC(=O)N2CCC(CN3CCOCC3)CC2)cc1Cl -8.1%
CCc1cccc(NC(=O)CCc2c(C)nc3c(-c4ccccc4)c(C)nn3c2C)c1 -15.4%
CCN(C(=O)Cn1c(=O)oc2cc(S(=O)(=O)N3CCCCC3)ccc21)c1ccccc1 -4.65%
COc1cccc(CNC(=O)c2c(C)oc3ncnc(N4CCOCC4)c23)c1 -8.09%
COc1ccc(N2CCN(C(=O)C3Cc4ccccc4N3C(C)=O)CC2)cc1 (centres undefined) -27.7%
Cc1cc(C)cc(N2CCn3c2nc2c3c(=O)n(C/C=C/c3ccccc3)c(=O)n2C)c1 0.204%
CCN(CC)CCCC(C)Nc1ccnc2cc(Cl)ccc12 (centres undefined)
CCOc1cc(CNC(=O)C2CCN(c3nc4ccccc4[nH]3)CC2)cc(OCC)c1OCC -8.46%
Cc1ccc(C)c(NC(=O)CCOc2ccccc2)c1 13%
CS(=O)(=O)c1ccc([C@@H](O)[C@@H](CF)NC(=O)C(Cl)Cl)cc1 -11%
Cc1ccc2nc(-c3ccc(F)cc3)c(NC(C)(C)CC(C)(C)C)n2c1 -0.295%
Cc1c(Cl)cccc1NC(=O)CSc1ccc(-c2ccccn2)nn1 -13.4%
O=C(Cn1c(=O)n(-c2ccc(Cl)cc2)c(=O)c2c3c(sc21)CCCCC3)Nc1cccc(Cl)c1 -15.6%
O=C(NCc1cccc(Cl)c1)c1cc2c(s1)-c1ccccc1SC2 -21.3%
Cc1ccc2cccc(NC(=O)c3cccc4c(Br)cccc34)c2n1 -3.02%
Cc1cc(C)c2nc(N3CCCC(C(=O)NCc4ccccc4F)C3)sc2c1 (centres undefined) 18.2%
CCn1c(=O)n(-c2ccc3c(c2)OCO3)c2nc(-c3cccc(OC)c3OC)nc(C(N)=O)c21 -4.8%
CCCn1cc(S(=O)(=O)c2ccc(C)c(C)c2)c(=O)c2cc(F)c(N3CCC(C)CC3)cc21 1.12%
COc1ccc(N2CCN(C(=O)c3ccc4c(c3)N(Cc3cccc(Cl)c3)C(=O)c3ccccc3S4(=O)=O)CC2)cc1 -8.78%
CC(C)OCCCNC(=O)Cc1ccc(NC(=O)N2CCCCc3ccccc32)cc1 -14.9%
CCc1ccccc1NC(=O)Cn1c(=O)n(-c2cccc(C)c2)c(=O)c2c1c1cc(OC)ccc1n2C 1.73%
CCOc1ccccc1N(C)C(=O)c1cc2c(s1)-c1ccccc1OC2 -28.4%
CCOC(=O)CC(NC(=O)c1cc2c(=O)n3cccc(C)c3nc2s1)c1ccc(OCC)c(OC)c1 (centres undefined) 5.88%
Cc1ccc(NC(=O)Cn2c(=O)n(CC(=O)NCCc3ccccc3)c(=O)c3ccccc32)cc1C -2.31%
CCCCc1nc(SCC(=O)Nc2ccc(S(N)(=O)=O)cc2)n[nH]1 -3.42%
COc1cccc(NC(=O)C2CCN(S(=O)(=O)c3c(C)noc3C)CC2)c1 -4.9%
Cc1ccc(C(=O)COC(=O)c2cc(-c3cccs3)nc3ccccc23)cc1 19.2%
Cc1ccc(S(=O)(=O)c2cn(CC(=O)Nc3ccc(F)cc3)c3cc4c(cc3c2=O)OCO4)cc1 -23.9%
CCc1nc2ccccc2n2c(-c3ccccc3)c3c(=O)n(C)c(=O)n(C)c3c12 -8.78%
COc1ccc(-n2c(=O)c3c4c(sc3n(Cc3ccc(C)cc3C)c2=O)CCC4)c(OC)c1 -16.5%
CCC(C(=O)Nc1ccc(C(C)=O)cc1)n1cnc2nc3c(cc2c1=O)CCCC3 (centres undefined) -14.7%
COc1ccc(OC)c(CNC(=O)Cn2ncc3c([nH]c4ccc(C)cc43)c2=O)c1 10%
COc1cc(C(CC(=O)NCc2ccccc2)N2Cc3ccccc3C2=O)cc(OC)c1OC (centres undefined) -13.5%
CC1=C(C(=O)Nc2cc(Cl)ccc2C)C2(CCCCC2)OC1=O -16.9%
Cc1cc(C)cc(NC(=O)CCc2nnc3n(C)c(=O)c4sccc4n23)c1 -1.25%
Cc1cc(C)n2nc(CNC(=O)c3ccccc3Cl)nc2n1 14.4%
CCOc1ccc(NC(=O)C2CCN(c3nc4ccccc4[nH]3)CC2)cc1 1.99%
CCSc1ccc(C(=O)Nc2ccc(-c3nc4ccc(C)cc4s3)cc2)cc1 -7.71%
